The test system of this assay is influenza A/Puerto Rico/8/34 (H1N1) virus. Put plainly: Antiviral activity against influenza virus (inhibition of viral replication). The following applies: for IC50: Influenza A virus, H1N1, read-out: IC50 (half-maximal inhibitory concentration causing 50% inhibition of viral replication).

Like-named read-outs stand apart in the source and are kept apart here.

On to `NC1=NOC2(CCCCCCC2)C1` [Compound 3, 1-Oxa-2-azaspiro[4.7]dodec-2-en-3-amine], for which the IC50 was determined as 6.6 µM. The “SI (selectivity index CC50/IC50)” value (CC50/IC50, A/Puerto Rico/8/34 (H1N1)) is 83.

Turning to `NC1=NOC2CCCCCCC12` (stereo not drawn) [Compound 4, 3a,4,5,6,7,8,9,9a-Octahydrocycloocta[d]isoxazol-3-amine], the “SI (selectivity index CC50/IC50)” value stood at 81 and the IC50 amounted to 22 µM.

On to `CC(N)C12CC3CC(CC(C3)C1)C2` (stereo not drawn) [Rimantadine, reference compound], for which the “SI (selectivity index CC50/IC50)” value turned out to be 6 and the IC50 came to 67 ± 8 µM.

For the origin of these results see paper PMC9182378, “Bicyclic Isoxazoline Derivatives: Synthesis and Evaluation of Biological Activity” (Molecules, 2022).
